# Measurements as given in the BET-seq Pho4 binding data (Le et al. 2018).
# The list shows a part of the results. These are noisy estimates, calculated here from bound and input reads.
# Molecular target: T1, Pho4 (S. cerevisiae) (UniProt P07270)
# T1 sequence: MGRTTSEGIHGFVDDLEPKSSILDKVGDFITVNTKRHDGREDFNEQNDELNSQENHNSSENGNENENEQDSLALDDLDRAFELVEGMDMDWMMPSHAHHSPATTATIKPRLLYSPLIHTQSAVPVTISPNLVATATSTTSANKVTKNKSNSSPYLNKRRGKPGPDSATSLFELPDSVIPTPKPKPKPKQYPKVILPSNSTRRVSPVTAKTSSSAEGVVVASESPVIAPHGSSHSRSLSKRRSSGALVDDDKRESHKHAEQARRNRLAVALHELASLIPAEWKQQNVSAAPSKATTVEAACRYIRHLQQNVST
# Assay: relative binding free energy (BET-seq); higher = weaker binding
# Details: reference: library average
row,Sequence,relative binding free energy [kcal/mol]
1,TTAGCCACGTGGGGCG,-0.26
2,TTGTTCACGTGTGTCT,0.37
3,TGGATCACGTGGGACA,0.08
4,GGGATCACGTGAATTG,0.29
5,AGATTCACGTGTGCGA,0.29
6,TTGTGCACGTGGCTGC,-0.03
7,TCGGTCACGTGTTTCG,0.07
8,GGTAACACGTGTGGAG,0.16
9,GTGGGCACGTGGAAGG,-0.08
10,TGGCACACGTGATGAG,0.27
11,TAGGACACGTGTTTTT,-0.02
12,AAGTGCACGTGAGAGG,0.12
13,TTAGGCACGTGGTCAA,-0.25
14,GCGGGCACGTGTTGGC,-0.03
15,GTTTTCACGTGGCATG,0.19
16,GGCTACACGTGTGGGG,0.12
17,AGAGCCACGTGGGAGT,-0.09
18,CAAAGCACGTGGTAGT,-0.03
19,AGCTGCACGTGTTAGT,-0.05
20,TTAAGCACGTGTTGGT,-0.08
21,GAGGTCACGTGGGTCG,-0.05
22,AGTTGCACGTGTTCTG,-0.19
23,CATAGCACGTGTGTAG,-0.03

row,Sequence,relative binding free energy [kcal/mol]
1,ATGTTCACGTGGCTTT,0.17
2,TGGTGCACGTGAGTGA,0.15
3,AGTTACACGTGTATGA,0.15
4,GAGGGCACGTGTTTAA,-0.03
5,GGCTGCACGTGTGACG,0.14
6,GGTTACACGTGGTAAG,0.12
7,GGGGCCACGTGTCGTG,0.03
8,GAATGCACGTGTAGGG,0
9,GGTACCACGTGGAGGT,-0.08
10,ATTGACACGTGGGTTC,-0.19
11,TAAGGCACGTGTAATG,-0.14
12,TTGCGCACGTGTCTGT,0
13,GGGTACACGTGGACTG,0.14
14,TGTTGCACGTGGGGAC,-0.04
15,CGGCTCACGTGTTGTT,0.14
16,TCTTCCACGTGGGGTT,-0.22
17,GAATGCACGTGTGTTG,0.19
18,ATCATCACGTGGAGGG,0.02
19,TTACTCACGTGTGGTG,0.22
20,AATGGCACGTGGCAAT,-0.09
21,TATTACACGTGCTATT,0.05
22,TGTTACACGTGAGCTT,0.15
23,TACGTCACGTGGAGGG,0

row,Sequence,relative binding free energy [kcal/mol]
1,TATTTCACGTGATGAT,0.38
2,ATTAGCACGTGTATTT,-0.13
3,TGTCTCACGTGTGGTT,0.19
4,CTGAGCACGTGTATTT,0
5,GTCATCACGTGGGAGG,0.12
6,TAGATCACGTGATCGT,0.31
7,GATGTCACGTGCTGGG,0.17
8,TGCTACACGTGTGGCG,0.1
9,AGGTTCACGTGCAGTA,0.15
10,AGTGCCACGTGCAGGT,-0.16
11,TGCGTCACGTGTACGT,0.05
12,TGGGACACGTGATCTG,-0.01
13,CTACGCACGTGGTGGG,-0.35
14,TGCTTCACGTGATGTG,0.34
15,CGGGTCACGTGTTAGG,0.14
16,AATGTCACGTGGTTCT,0.05
17,TCGGGCACGTGGGGAC,-0.21
18,GGTTTCACGTGAGAAA,0.39
19,TTCGTCACGTGGTTTA,-0.04
20,AATTTCACGTGGGAGA,0.16
21,TACAGCACGTGGTATG,-0.09
22,GTTGGCACGTGGCTGT,-0.16
23,TTGTGCACGTGAGTTA,0.29

row,Sequence,relative binding free energy [kcal/mol]
1,ATTAGCACGTGATGGG,0.04
2,CTGAGCACGTGTTATG,-0.05
3,CGGAGCACGTGTGTTT,-0.01
4,TAGGACACGTGTTGAG,0.15
5,GGCGGCACGTGGGATT,-0.06
6,GATTGCACGTGGCCGG,0.09
7,AATAGCACGTGGTCAT,-0.08
8,ATTGCCACGTGTGGAG,-0.07
9,TTATGCACGTGTAGCG,0.07
10,TTTTTCACGTGGGACG,0.26
11,GGGTTCACGTGGCTGC,0.28
12,AGGATCACGTGTGTCG,0.09
13,GGCGTCACGTGGGGTT,0.02
14,AGGGTCACGTGTCATG,0.04
15,CAGTGCACGTGATTGG,0.15
16,TGACACACGTGTGGTA,-0.02
17,ATTGTCACGTGGCGGG,0.03
18,ATTTACACGTGTGTGT,0.08
19,TATTGCACGTGTTGGG,-0.05
20,ATTCACACGTGGTATG,-0.02
21,CGGTACACGTGCGGTG,0.01
22,GTGATCACGTGTCGGT,0.07
23,GGGGGCACGTGCTCGT,-0.23

row,Sequence,relative binding free energy [kcal/mol]
1,TGGGGCACGTGGTCGG,-0.21
2,TGTCGCACGTGAAATT,0.29
3,TGGCGCACGTGAGGTA,0.17
4,TGTGACACGTGTGGAC,0.14
5,AGGTGCACGTGACTGG,0.09
6,ATGATCACGTGGTAGT,0.14
7,TCCGTCACGTGGGTTT,-0.04
8,GGTTCCACGTGTTTTG,0.13
9,TATTTCACGTGTACGT,0.16
10,TATACCACGTGGAGGT,0.02
11,GGCGCCACGTGTGTGT,0.01
12,TTTTTCACGTGACCTT,0.29
13,TGGGTCACGTGAGATG,0.35
14,ATTAGCACGTGGTGAT,-0.05
15,TGTGACACGTGGGGCA,-0.28
16,TATGGCACGTGGCAGT,-0.17
17,CTTGGCACGTGCAGTT,0.04
18,AGTCTCACGTGTGGGC,0.2
19,AAAGTCACGTGCGGTT,0.16
20,AGCGACACGTGGGTTC,0.11
21,TGGGTCACGTGGTATA,0.05
22,TATGTCACGTGGGAAC,0.11
23,GTCTACACGTGAGTAT,0.36
